In patent US20090306572A1 (Affibody, published 2009):
Positions count from the first letter of the chain named.

B1: SEQ ID NO 47 (designed binder, not shown: large carriers; small tags and cut ends)
chain: VDNKFNKEVVGAMLEIARLPNLNRGQVNAFIWSLADDPSQSANLLAEAKKLNDAQAPK
notes: Z variant tested as fusion with ABD
B2: SEQ ID NO 50 (designed binder, not shown: large carriers; small tags and cut ends)
chain: VDNKFNKEPLAAVMEIVQLPNLNMHQYYAFIRSLNDDPSQSANLLAEAKKLNDAQAPK
notes: as for B1
B3: SEQ ID NO 51 (designed binder, not shown: large carriers; small tags and cut ends)
chain: VDNKFNKETEWAIAEIIGLPNLNLHQYYAFIMSLRDDPSQSANLLAEAKKLNDAQAPK
notes: as for B1
B4: SEQ ID NO 52 (designed binder, not shown: large carriers; small tags and cut ends)
chain: VDNKFNKEAYTASLEIANLPNLNMHQYYAFIHSLLDDPSQSANLLAEAKKLNDAQAPK
notes: as for B1
B5: SEQ ID NO 53 (designed binder, not shown: large carriers; small tags and cut ends)
chain: B4 chain with A9M, Y10R, T11W, S13A, N18A, M24V, H32R
notes: as for B1
B6: SEQ ID NO 54 (designed binder, not shown: large carriers; small tags and cut ends)
chain: VDNKFNKEFHGAIREIHLLPNLNLQQRMAFIISLTDDPSQSANLLAEAKKLNDAQAPK
notes: as for B1
B7: SEQ ID NO 55 (designed binder, not shown: large carriers; small tags and cut ends)
chain: VDNKFNKEWKAAAREIGSLPNLNLHQYYAFIVSLQDDPSQSANLLAEAKKLNDAQAPK
notes: as for B1
B8: SEQ ID NO 3 (designed binder, not shown: large carriers; small tags and cut ends)
chain: VDNKFNKEMFGAVGEIGALPNLNDRQLRAFILSLWDDPSQSANLLAEAKKLNDAQAPK
notes: as for B1
B9: SEQ ID NO 59 (designed binder)
chain: B8 chain with G11S, V13I, A18N, R28A, W35F
notes: Z variant tested as fusion with ABD; not shown: It only anchors the fusion to coated HSA
B10: SEQ ID NO 69 (designed binder, not shown: large carriers; small tags and cut ends)
chain: B8 chain with M9V, F10R, G11F, V13I, A18G
notes: as for B1
B11: SEQ ID NO 60 (designed binder)
chain: VDNKFNKETFHAIGEIGSLPNLNDMQFSAFIISLWDDPSQSANLLAEAKKLNDAQAPK
notes: as for B9
B12: SEQ ID NO 63 (designed binder)
chain: VDNKFNKEAPGATSEINILPNLNWRQIMAFIVSLRDDPSQSANLLAEAKKLNDAQAPK
notes: as for B9
B13: SEQ ID NO 64 (designed binder)
chain: VDNKFNKEFIDAPREILRLPNLNMTQQMAFIRSLADDPSQSANLLAEAKKLNDAQAPK
notes: as for B9
B14: SEQ ID NO 65 (designed binder)
chain: VDNKFNKETMAAMNEIVRLPNLNGWQRYAFIQSLRDDPSQSANLLAEAKKLNDAQAPK
notes: as for B9
B15: SEQ ID NO 66 (designed binder, not shown: large carriers; small tags and cut ends)
chain: VDNKFNKEAHSALREILKLPNLNIEQWQAFIRSLADDPSQSANLLAEAKKLNDAQAPK
notes: as for B1
B16: SEQ ID NO 67 (designed binder, not shown: large carriers; small tags and cut ends)
chain: VDNKFNKEWHDALREIHRLPNLNVYQSLAFIRSLVDDPSQSANLLAEAKKLNDAQAPK
notes: as for B1
B17: SEQ ID NO 68 (designed binder, not shown: large carriers; small tags and cut ends)
chain: B4 chain with A9L, T11Y, S13K, M24V, Y27W, H32I, L35E
notes: as for B1
B18: SEQ ID NO 70 (designed binder, not shown: large carriers; small tags and cut ends)
chain: VDNKFNKEWEWASKEIVILPNLNTQQRAAFIRSLWDDPSQSANLLAEAKKLNDAQAPK
notes: as for B1
B19: SEQ ID NO 73 (designed binder, not shown: large carriers; small tags and cut ends)
chain: VDNKFNKETAQAPLEIALLPNLNWPQKVAFIRSLADDPSQSANLLAEAKKLNDAQAPK
notes: as for B1
B20: SEQ ID NO 74 (designed binder, not shown: large carriers; small tags and cut ends)
chain: B8 chain with M9V, G11W, V13A, A18I, D24H, R25M, L27Y
notes: as for B1
B21: SEQ ID NO 2 (designed binder, not shown: large carriers; small tags and cut ends)
chain: VDNKFNKEAAWAPFEIQHLPNLNHPQNDAFIDSLTDDPSQSANLLAEAKKLNDAQAPK
notes: as for B1
B22: SEQ ID NO 5 (designed binder, not shown: large carriers; small tags and cut ends)
chain: VDNKFNKELGWAIGEIGTLPNLNHQQFRAFILSLWDDPSQSANLLAEAKKLNDAQAPK
notes: as for B1
B23: SEQ ID NO 6 (designed binder, not shown: large carriers; small tags and cut ends)
chain: VDNKFNKESEGAMHEIVRLPNLNAWQRQAFIVSLWDDPSQSANLLAEAKKLNDAQAPK
notes: as for B1
B24: SEQ ID NO 9 (designed binder, not shown: large carriers; small tags and cut ends)
chain: VDNKFNKEGRTAACEIQDLPNLNLDQCWAFIKSLLDDPSQSANLLAEAKKLNDAQAPK
notes: as for B1
B25: SEQ ID NO 10 (designed binder, not shown: large carriers; small tags and cut ends)
chain: VDNKFNKECSMAPREIWALPNLNREQAVAFIRSLCDDPSQSANLLAEAKKLNDAQAPK
notes: as for B1
B26: SEQ ID NO 11 (designed binder, not shown: large carriers; small tags and cut ends)
chain: VDNKFNKECRTAPREIFSLPNLNIGQQWAFIRSLCDDPSQSANLLAEAKKLNDAQAPK
notes: as for B1
B27: SEQ ID NO 12 (designed binder, not shown: large carriers; small tags and cut ends)
chain: VDNKFNKETVPAMREIASLPNLNTTQKVAFIRSLSDDPSQSANLLAEAKKLNDAQAPK
notes: as for B1
B28: SEQ ID NO 13 (designed binder, not shown: large carriers; small tags and cut ends)
chain: B25 chain with S10A, M11Y, A18R, R24H, E25Q, A27G
notes: as for B1
B29: SEQ ID NO 14 (designed binder, not shown: large carriers; small tags and cut ends)
chain: VDNKFNKEPNVASMEILPLPNLNNQQMTAFIQSLDDDPSQSANLLAEAKKLNDAQAPK
notes: as for B1
B30: SEQ ID NO 15 (designed binder, not shown: large carriers; small tags and cut ends)
chain: VDNKFNKERVAAACEIESLPNLNLQQCWAFIRSLMDDPSQSANLLAEAKKLNDAQAPK
notes: as for B1
B31: SEQ ID NO 16 (designed binder, not shown: large carriers; small tags and cut ends)
chain: VDNKFNKECFMAPQEINKLPNLNAWQKYAFIWSLCDDPSQSANLLAEAKKLNDAQAPK
notes: as for B1
B32: SEQ ID NO 18 (designed binder, not shown: large carriers; small tags and cut ends)
chain: VDNKFNKEFVYAIAEIMNLPNLNQSQQLAFIYSLRDDPSQSANLLAEAKKLNDAQAPK
notes: as for B1
B33: SEQ ID NO 21 (designed binder, not shown: large carriers; small tags and cut ends)
chain: VDNKFNKEHMEADCEIEHLPNLNRKQCWAFIKSLRDDPSQSANLLAEAKKLNDAQAPK
notes: as for B1
B34: SEQ ID NO 22 (designed binder, not shown: large carriers; small tags and cut ends)
chain: B33 chain with H9R, M10T, E11V, D13S, R24L, K25D, K32D
notes: as for B1
B35: SEQ ID NO 23 (designed binder, not shown: large carriers; small tags and cut ends)
chain: VDNKFNKESAHAVGEIGSLPNLNLVQIGAFIKSLWDDPSQSANLLAEAKKLNDAQAPK
notes: as for B1
B36: SEQ ID NO 24 (designed binder, not shown: large carriers; small tags and cut ends)
chain: VDNKFNKEGRPAGLEIMCLPNLNTAQMVAFIRSLTDDPSQSANLLAEAKKLNDAQAPK
notes: as for B1

What follows are binders tested against T1, biotin-conjugated, recombinant TNF-α produced in E. coli (human, UniProt P01375 77-233, biotin-conjugated (sites not given)) (assay: ELISA: Z-ABD fusion captured on HSA, biotinylated TNF-α 1 µg/ml, signal above threshold).
T1 construct: Research Diagnostics Inc, cat no RDI-301X; also called Biotinylated TNF-α

Binder | binding result
B1 | binds
B2 | binds
B3 | binds
B4 | binds
B5 | binds
B6 | binds
B7 | binds
B8 | binds
B9 | binds
B10 | binds
B11 | binds
B12 | binds
B13 | binds
B14 | binds
B15 | binds
B16 | binds
B17 | binds
B18 | binds

Binder | binding result
B19 | binds
B20 | binds
B21 | binds
B22 | binds
B23 | binds
B24 | binds
B25 | binds
B26 | binds
B27 | binds
B28 | binds
B29 | binds
B30 | binds
B31 | binds
B32 | binds
B33 | binds
B34 | binds
B35 | binds
B36 | binds
